Among all 360,000 compounds or so, about 25,000 (6.9%) were called active. Inconclusive means that the source gave no clear call. Such entries were picked first, then a sample of the others. Calls follow the shape of the dose curve; as a rule, active = well fitted inhibition curve with a large enough effect; inconclusive = small, poorly fitted or top-dose-only effect; inactive = flat fitted curve, though single readings scatter. Where the call is inconclusive, the potency comes from a doubtful curve fit.
The compounds below were run against Luciferin 4-monooxygenase (Photinus pyralis) (UniProt P08659) (assay: qHTS profiling assay for firefly luciferase inhibitor/activator using purifed enzyme and Km concentrations of substrates (counterscreen for miR-21 project)). Details: purified FLuc, luminescence inhibition; activity change, negative = inhibition: at 57.5 µM (top of the series).
Sequence of UniProt P08659 (P08659 whole entry, looked up): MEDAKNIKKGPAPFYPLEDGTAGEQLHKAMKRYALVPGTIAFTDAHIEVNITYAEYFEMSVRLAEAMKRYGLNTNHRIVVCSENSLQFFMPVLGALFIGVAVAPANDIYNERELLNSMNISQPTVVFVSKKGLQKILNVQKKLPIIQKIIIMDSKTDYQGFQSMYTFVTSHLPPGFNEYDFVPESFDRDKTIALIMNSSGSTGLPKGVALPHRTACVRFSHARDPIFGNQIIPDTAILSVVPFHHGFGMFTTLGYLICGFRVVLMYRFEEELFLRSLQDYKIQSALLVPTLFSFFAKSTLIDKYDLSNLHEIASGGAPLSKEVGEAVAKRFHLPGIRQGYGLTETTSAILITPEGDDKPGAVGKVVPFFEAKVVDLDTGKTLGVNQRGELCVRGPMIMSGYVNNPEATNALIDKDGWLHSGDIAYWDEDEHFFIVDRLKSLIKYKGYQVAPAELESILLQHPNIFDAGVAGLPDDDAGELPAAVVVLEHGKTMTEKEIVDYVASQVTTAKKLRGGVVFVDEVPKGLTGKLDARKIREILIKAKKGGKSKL
Summary of the method: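 Purified P. pyralis luciferase, 10 nM final, with Km-level 10 uM D-luciferin and 10 uM ATP in 50 mM Tris acetate pH 7.5, 10 mM Mg acetate, 0.01% Tween-20, 0.05% BSA; 6-point qHTS titration about 60 µM downward; luminescence read.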
In the case of `O=C(Nc1ccc2c(c1)OCCO2)c1ccc(Cl)c(S(=O)(=O)N2CCOCC2)c1`, the Potency is reported as inconclusive: 19 µM [inhibitor, partial curve, poor fit]. With `O=C(Nc1ccc(C(F)(F)F)cc1)c1ccc2ncsc2c1` the Potency was active: 13.5 µM. With `c1cnc2nc(-c3ccc4c(c3)OCO4)cn2c1` the Potency was active: 9.53 µM. With `N=c1oc2ccc(Cl)cc2cc1C(=O)Nc1ccc(F)cc1` the Potency was inconclusive: 3.38 µM [inhibitor, partial curve]. For `Cc1ccc2[nH]c3nc(NN)nnc3c2c1`, the Potency was inconclusive: 8.49 µM [inhibitor, partial curve]. For `C=C(C)C(=O)N1CC2(CC(c3cccc(NC(=O)c4ccccc4)c3)=NO2)C[C@@H]1C(N)=O` (some centres not stated), the Potency was inconclusive: 26.9 µM [inhibitor, partial curve, poor fit]. With `NC(=S)N/N=C/c1ccc(-c2ccc(Cl)c(Cl)c2)o1` the Potency was inconclusive: 23.9 µM [inhibitor, single point]. `COc1ccc(-c2nc(CCNC(=O)Cc3ccc(F)cc3)cs2)cc1` was tested, and the Potency was inconclusive: 16.9 µM [inhibitor, partial curve]. For `COc1cc([N+](=O)[O-])ccc1N/C=C/C(=O)c1cccs1`, the Potency was active: 0.12 µM. In the case of `c1ccc(CNc2ncnc3[nH]ncc23)cc1`, the “activity change, negative = inhibition” value is reported as inactive: -3.6%. In the case of `CC(=O)Cc1nsc(NC(=O)c2ccc(Br)o2)n1`, the Potency is reported as inconclusive: 37.9 µM [inhibitor, partial curve, poor fit]. For `O=C(CC(=O)c1ccccc1)Nc1cccnc1`, the Potency was inconclusive: 23.9 µM [inhibitor, partial curve, poor fit]. With `Cc1[nH]n(-c2ccccc2)c(=O)c1/C=N/NC(=O)c1cccc(F)c1` the Potency was active: 9.53 µM. In the case of `O=C(C1CCCN(S(=O)(=O)c2cccs2)C1)N1CCN(c2ccccc2F)CC1` (configuration not stated), the “activity change, negative = inhibition” value is reported as inactive: 6.6%. In the case of `CC(=O)c1ccc(NC(=O)c2ccc(CNc3c(N4CCOCC4)c(=O)c3=O)cc2)cc1`, the Potency is reported as active: 12 µM. In the case of `COc1cc(OC)cc(-c2cc(NC(C)=O)n[nH]2)c1`, the Potency is reported as inconclusive: 37.9 µM [inhibitor, partial curve, poor fit]. For `O=C(O)c1ccccc1C(=O)OCCCCOC(=O)c1ccccc1C(=O)O`, the Potency was inconclusive: 10.7 µM [inhibitor, partial curve, poor fit]. In the case of `COc1ccc(CCNc2nc(-c3sc(N)nc3C)cs2)cc1OC`, the Potency is reported as inconclusive: 26.9 µM [inhibitor, partial curve, poor fit]. With `O=C(CSc1nnnn1-c1ccc2c(c1)CCC2)Nc1ccc2c(c1)OCCO2` the Potency was inconclusive: 26.9 µM [inhibitor, partial curve, poor fit]. `CCOc1ccc(N2CSC3=C(C#N)C(c4ccco4)CC(=O)N3C2)cc1` (configuration not stated) was tested, and the Potency was inconclusive: 12 µM [inhibitor, partial curve]. With `NC(=O)[C@@H]1CCCN1C(=O)c1cc(COc2ccc3c(c2)CCCC3)on1` the Potency was inconclusive: 16.9 µM [inhibitor, partial curve]. With `O=C(Nc1ccc(N2CCOCC2)cc1)C1CC(=O)N(c2ccccc2)C1` (configuration not stated) the Potency was inconclusive: 33.8 µM [inhibitor, single point]. For `O=C(Nc1ccc(Cl)cc1)[C@@H]1[C@@H]2C(=O)N(c3ccc4ccccc4c3)C(=O)[C@@H]2[C@H]2C=CC=NN21`, the Potency was inconclusive: 37.9 µM [inhibitor, single point]. `CC(C(=O)Nc1ncc([N+](=O)[O-])s1)N1C(=O)c2ccccc2S1(=O)=O` (configuration not stated) was tested, and the “activity change, negative = inhibition” value was inactive: -0.941%. In the case of `O=C(C1COc2cc(S(=O)(=O)Nc3ccc(Cl)cc3)ccc2O1)N1CCCC1` (configuration not stated), the Potency is reported as inconclusive: 16.9 µM [inhibitor, partial curve, poor fit]. In the case of `CC(C(=O)NCC1CCCO1)n1cccc1C(=O)c1ccccc1` (configuration not stated), the Potency is reported as inconclusive: 8.49 µM [inhibitor, single point]. `CCc1ccc(Nc2n[n+](-c3ccccc3)c(-c3cccc(C)c3)s2)cc1` was tested, and the Potency was inconclusive: 23.9 µM [inhibitor, single point]. `CCCN(CCC)c1ccc(C(O)c2nnc(-c3ccccc3)o2)cc1` (configuration not stated) was tested, and the Potency was inconclusive: 23.9 µM [inhibitor, partial curve, poor fit]. In the case of `Cc1ccc(C(=O)COc2ccc3c(C)cc(=O)oc3c2)cc1`, the Potency is reported as inconclusive: 37.9 µM [inhibitor, partial curve, poor fit]. In the case of `COc1cccc(-c2nnc3sc(-c4ccco4)nn23)c1`, the Potency is reported as inconclusive: 8.49 µM [inhibitor, partial curve, poor fit]. For `O=C(COC(=O)CNC(=O)c1ccccc1F)Nc1ccc2c(c1)OCCO2`, the Potency was inconclusive: 37.9 µM [inhibitor, partial curve, poor fit]. In the case of `Cc1ccc(N(Cc2ccccc2)C(=O)c2cc(S(=O)(=O)N3CCOCC3)ccc2F)cc1`, the Potency is reported as active: 19 µM. With `CSc1ccc(NC(=O)Nc2cc(C)ccn2)cc1` the Potency was active: 0.301 µM. In the case of `Cc1cnc(NC(=O)CCCNC(=O)c2ccc(Cl)cc2)s1`, the Potency is reported as active: 8.49 µM. For `COc1ccccc1NS(=O)(=O)c1ccc2oc(SC)nc2c1`, the “activity change, negative = inhibition” value was inactive: -2.21%. For `O=C(O)C/C(=C\c1cc(Br)cs1)c1nc2ccccc2o1`, the Potency was inconclusive: 37.9 µM [inhibitor, partial curve, poor fit]. `CC(C)c1ccc(S(=O)(=O)Nc2cc3c(cc2NCc2ccccc2)n(C)c(=O)n3C)cc1` was tested, and the Potency was inconclusive: 16.9 µM [inhibitor, partial curve]. In the case of `Cc1ccc(N=C2NC(=O)c3cccc([N+](=O)[O-])c32)cc1`, the Potency is reported as inconclusive: 26.9 µM [inhibitor, partial curve, poor fit]. For `O=C(Nn1nnnc1Nc1ccccc1)C12CC3CC(CC(C3)C1)C2`, the “activity change, negative = inhibition” value was inactive: -2.16%. With `O=C(O)c1cccc(NC(=O)c2cccc(NC(=O)C3CCCO3)c2)c1` (configuration not stated) the Potency was active: 3.01 µM. With `COc1ccc(/C=N/Nc2nonc2N)c(OC)c1` the Potency was inconclusive: 30.1 µM [inhibitor, partial curve, poor fit]. For `O=C(N/N=C/c1ccc(N2CCOCC2)o1)c1cccc([N+](=O)[O-])c1`, the Potency was inconclusive: 21.3 µM [inhibitor, partial curve, poor fit].
Also: nearly all actives have a fitted effect of over 55% in size.
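For activity change, negative = inhibition in this document: plate controls were vehicle for no effect and reference inhibitor for full effect.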
Potency is read from the fitted curve at half-maximal effect; tags tell the direction and shape of the fitted curve.
